Measured values published in PMC4336329 (PLoS ONE, 2015).
Out of some 310,000 compounds screened, about 2,200 (0.71%) showed an effect of 50% or more. The effect is printed as a negative number. This is one part of the list.

Molecular target: human ether-à-go-go-related gene (hERG) potassium channel (human, UniProt Q12809)
Assay: primary screen, population patch clamp on CHO cells stably expressing hERG

human ether-à-go-go-related gene (hERG) potassium channel, sequence (Q12809 whole entry, looked up): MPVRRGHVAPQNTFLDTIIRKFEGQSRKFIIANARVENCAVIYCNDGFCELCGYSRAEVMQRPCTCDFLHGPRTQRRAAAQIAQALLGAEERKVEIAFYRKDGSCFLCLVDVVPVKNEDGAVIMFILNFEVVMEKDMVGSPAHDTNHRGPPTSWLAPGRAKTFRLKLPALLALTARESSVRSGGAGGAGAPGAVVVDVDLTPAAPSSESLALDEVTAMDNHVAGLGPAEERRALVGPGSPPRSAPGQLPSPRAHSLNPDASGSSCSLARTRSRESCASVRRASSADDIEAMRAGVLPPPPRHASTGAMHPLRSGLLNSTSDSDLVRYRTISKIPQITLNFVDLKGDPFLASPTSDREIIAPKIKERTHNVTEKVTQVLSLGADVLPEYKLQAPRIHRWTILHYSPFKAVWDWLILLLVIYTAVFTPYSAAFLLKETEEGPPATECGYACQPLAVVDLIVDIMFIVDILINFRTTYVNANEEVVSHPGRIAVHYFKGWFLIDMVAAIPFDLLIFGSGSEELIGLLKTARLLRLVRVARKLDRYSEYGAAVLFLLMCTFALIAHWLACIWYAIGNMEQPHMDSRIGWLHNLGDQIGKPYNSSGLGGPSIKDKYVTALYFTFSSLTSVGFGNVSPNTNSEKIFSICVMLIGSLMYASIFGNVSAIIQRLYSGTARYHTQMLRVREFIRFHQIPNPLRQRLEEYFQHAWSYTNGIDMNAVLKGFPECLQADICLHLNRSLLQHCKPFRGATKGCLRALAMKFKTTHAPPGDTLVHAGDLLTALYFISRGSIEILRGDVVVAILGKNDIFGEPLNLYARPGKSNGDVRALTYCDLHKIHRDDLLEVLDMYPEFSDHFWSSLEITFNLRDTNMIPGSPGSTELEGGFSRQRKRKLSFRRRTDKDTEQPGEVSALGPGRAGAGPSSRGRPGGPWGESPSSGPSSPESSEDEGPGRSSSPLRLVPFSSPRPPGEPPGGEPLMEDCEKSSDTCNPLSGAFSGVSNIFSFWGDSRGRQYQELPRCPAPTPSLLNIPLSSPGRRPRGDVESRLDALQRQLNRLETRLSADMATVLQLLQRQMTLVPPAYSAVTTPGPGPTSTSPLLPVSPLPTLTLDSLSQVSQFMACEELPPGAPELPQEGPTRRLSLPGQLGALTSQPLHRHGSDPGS

Row | SMILES | hERG current change (%, negative = inhibition) at 1uM
1 | COc1ccc(S(=O)(=O)NCCC(=O)NCc2ccc(F)cc2)cc1 | -8.18%
2 | Cc1cccc(-n2c(C)n[nH]c2=S)c1C | 11.1%
3 | Cc1ccc(-c2nnn(CC(=O)N(CC(=O)NC3CCCC3)c3ccc(F)c(Cl)c3)n2)o1 | 2.99%
4 | COc1ccc(CN2CCCC(C(=O)N3CCCCC3)C2)cc1OC.O=C(O)C(=O)O (centres unmarked) | 2.85%
5 | O=C(Nc1ccc(Br)cc1)c1cnccn1 | 7.97%
6 | CCN(Cc1ccccc1)S(=O)(=O)c1ccc(C(=O)N(CCCN(C)C)c2nc3cc(OC)ccc3s2)cc1.Cl | -4.97%
7 | COC(=O)CCCc1nc2ccccc2s1 | 9.62%
8 | CCCCn1nc(C(=O)N(CCOC)c2c(N)n(CCCC)c(=O)[nH]c2=O)c2ccccc2c1=O | 9.75%
9 | Cl.Nc1ncnc2sc3c(c12)CCNC3 | 15.9%
10 | Cc1ccc2oc(=O)cc(CN3CCN(C/C=C/c4ccccc4)CC3)c2c1 | -53.7%
11 | CCOC(=O)C1CCN(C(=O)CNS(=O)(=O)c2ccc(Br)s2)CC1 | 1.86%
12 | COC(=O)c1[nH]c2ccccc2c1NC(=O)c1ccccc1F | 12.7%
13 | O=C(CSC(=S)N1CCOCC1)Nc1ncc2c(n1)CCCC2=O | 0.148%
14 | NC(=O)COC(=O)c1ccc(-c2ccccc2)cc1 | 6.68%
15 | C=CCn1c(SCC(=O)Nc2ccc3c(c2)OCCO3)nc2cc(C(=O)O)ccc2c1=O | 4.69%
16 | O=C(c1cccs1)N(Cc1ccccn1)Cc1ccco1 | -1.52%
17 | CC(Sc1nnc(-c2cccnc2)n1C)C(=O)N1CCOCC1 (centres unmarked) | 1.36%
18 | COc1ccc(OC)c(NC(=O)Cn2c(CCC(=O)O)ccc2-c2ccc(C)cc2)c1 | 7.11%
19 | CCCN1CCN(C(=O)c2cccc3c2C(=O)N(CCOC)C3)CC1 | 13.6%
20 | CC(C)c1ccc(S(=O)(=O)N(C)C2(C)CCS(=O)(=O)C2)cc1 (centres unmarked) | -22.5%
21 | C=CCNC(=S)NNC(=O)c1ccc(OCCCC)cc1 | 10.8%
22 | Nn1c(-c2ccccc2Cl)nnc1-c1ccccc1Cl | 8.03%

Row | SMILES | hERG current change (%, negative = inhibition) at 1uM
23 | O=C(CCC(=O)N1CCOc2ccccc21)Nc1ccccc1Cl | 10.9%
24 | COc1ccc(-n2c(C)cc(/C=C3\C(=N)N4N=C(CC(=O)N5CCOCC5)SC4=NC3=O)c2C)c(OC)c1 | 15.2%
25 | CCOC(=O)c1c(C)n(C)c2ccc(OC)c(NC(=O)CCN3CCSCC3)c12 | 1.26%
26 | O=S(=O)(Nc1cccc(-n2cnnn2)c1)c1ccccc1 | 16.8%
27 | O=C(CCNc1ccc(F)cc1)c1cccc([N+](=O)[O-])c1 | -1.05%
28 | COc1ccccc1CC(=O)O/N=C(\N)Cc1cccc2ccccc12 | 14.2%
29 | N#CCCN1CCN(CCC#N)CC1 | 9.6%
30 | COC(=O)C1=C(C)N=C2SC(C#N)=C(N)N2C1c1cc(OC)c(OC)c(OC)c1 (centres unmarked) | -1.44%
31 | O=C1CCCCN1CC(=O)N1CCCC(Nc2ccc(F)cc2)C1 (centres unmarked) | 12.3%
32 | O=C(Nc1ccc(Cl)cc1Cl)NC1CCN(S(=O)(=O)c2ccc(F)cc2)CC1 | 10.3%
33 | COc1cc(C(=O)NCc2ccc(S(N)(=O)=O)cc2)ccc1OCC(=O)N1CCOCC1 | 12.1%
34 | CCCc1ccc(OCc2ccc(C(=O)N/N=C/c3cccnc3)o2)cc1 | 9.65%
35 | CCC(=O)c1ccc(OCC(=O)OCC(=O)NCCC2=CCCCC2)cc1 | 2.8%
36 | CC1(C)Oc2nc3ccccc3n2/C1=C\C#N | 9.08%
37 | O=C(NC1CCCCC1)C(c1ccc(Cl)cc1)N1CCC2(CC1)OCCO2 (centres unmarked) | 3.06%
38 | CC(=O)C(Cc1ccccc1)NC(=O)CN1c2cccc3cccc(c23)S1(=O)=O (centres unmarked) | 16.5%
39 | O=C1CN(C(=O)NCC(=O)N[C@@H](C(=O)O)c2ccccc2)c2ccccc2N1 | 4.26%
40 | Cc1ccc(OCC(=O)Nc2ccc(S(=O)(=O)N3CCOCC3)cc2)c([N+](=O)[O-])n1 | 8.24%
41 | CN(Cc1ccccc1)S(=O)(=O)c1ccc2[nH]c(=O)ccc2c1 | 8.46%
42 | CC(C)(C)n1nnnc1C(c1ccc(Cl)cc1)N(Cc1cccnc1)Cc1ccco1 (centres unmarked) | 8.86%
43 | Cc1ccc(/C=N/Nc2nc(Cl)c(Cl)cc2Cl)s1 | 14.6%
44 | COc1cc(/C=N/NC(=O)NC2CCCCC2)cc(OC)c1O | 5.53%
